In PubChem BioAssay AID1476 (National Center for Advancing Translational Sciences (NCATS), 2009):
Out of some 200,000 compounds screened, about 4,500 (2.2%) were called active. The inconclusive results got no clear call from the source; some entries with a clear call stand among them for comparison. Calls follow the shape of the dose curve; as a rule, active = well fitted inhibition curve with a large enough effect; inconclusive = small, poorly fitted or top-dose-only effect, or effect the other way; inactive = flat fitted curve, though single readings scatter. Potencies beside an inconclusive call are fits to weak or partial responses and may not hold up.

Target: Cruzipain (Trypanosoma cruzi) (UniProt P25779)
Assay: qHTS Assay for Promiscuous and Specific Inhibitors of Cruzain (without detergent); also: nearly all actives have a fitted effect of over 40% in size;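 as to max response, negative = inhibition: plate controls were enzyme without inhibitor for no effect and buffer without enzyme for full effect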
Details: purified cruzain, Z-FR-AMC fluorescence, no detergent
Method in brief: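 Purified cruzain at 1.5 nM, pre-incubated 15 min with compound at room temperature in 100 mM sodium acetate pH 5.5, 5 mM DTT, 0.00005% Triton X-100. Reaction started with 2 uM Z-FR-AMC; AMC fluorescence increase over 60 s gives rate.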
Potency is read from the fitted curve at half-maximal effect; tags tell the direction and shape of the fitted curve.

Sequence of UniProt P25779 (P25779 whole entry, looked up): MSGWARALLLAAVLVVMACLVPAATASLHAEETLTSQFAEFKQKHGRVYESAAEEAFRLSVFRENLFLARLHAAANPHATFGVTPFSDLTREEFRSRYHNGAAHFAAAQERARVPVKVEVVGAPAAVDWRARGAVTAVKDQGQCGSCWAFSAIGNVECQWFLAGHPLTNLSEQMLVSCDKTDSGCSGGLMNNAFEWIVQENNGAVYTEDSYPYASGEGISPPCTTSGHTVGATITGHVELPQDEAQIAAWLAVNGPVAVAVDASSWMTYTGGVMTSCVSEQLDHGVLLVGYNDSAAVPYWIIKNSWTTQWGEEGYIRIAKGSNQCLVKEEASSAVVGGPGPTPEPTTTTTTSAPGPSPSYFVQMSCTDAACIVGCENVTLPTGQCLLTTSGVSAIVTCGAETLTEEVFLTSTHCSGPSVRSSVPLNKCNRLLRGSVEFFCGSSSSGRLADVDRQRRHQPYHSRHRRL

Structure (SMILES) | Potency | max response, negative = inhibition
O=C(CSc1nc2c([nH]c3ccccc32)c(=O)n1-c1ccccc1F)Nc1cccc(C(F)(F)F)c1 | inconclusive: 39.8 µM [inhibitor, single point] | 
COc1ccc(Cl)cc1N(C)C(=O)CCc1nc(-c2ccc(C)cc2)no1 | inconclusive: 31.6 µM [activator, single point] | 
CCCCc1ccc(NC(=O)CSc2nc(=O)[nH]c3c2CCCC3)cc1 |  | inactive: -6.19%
COc1cc2cc(C(N)=O)c(N)nc2cc1OC | active: 15.8 µM | 
Cc1cc2oc(C(=O)N(Cc3ccc(N(C)C)cc3)Cc3ccco3)c(C)c2cc1Cl | inconclusive: 20 µM [inhibitor, partial curve, poor fit] | 
Cc1ccccc1Nc1nc(N)c(C(=O)c2ccccc2Cl)s1 | inconclusive: 31.6 µM [inhibitor, single point] | 
COc1ccc(Cl)cc1C(=O)Nc1ccc(S(=O)(=O)N2CCCC2)cc1 | inconclusive: 0.0501 µM [inhibitor, full curve] | 
O=C(CN1C(=O)C2(SCC(=O)N2c2ccc(F)cc2)c2ccccc21)NC1CCCCC1 (stereo not given) |  | inactive: 11.7%
O=C(COc1ccc(Cl)cc1)N1CCN(c2ccc([N+](=O)[O-])c(N3CCCCC3)c2)CC1 |  | inactive: -6.55%
Cc1nc(NC(=O)c2cc3c(s2)CCCCC3)sc1C(=O)N(C)C | inconclusive: 31.6 µM [activator, single point] | 
NCC1(c2ccc3c(c2)OCCO3)CCCC1 | inconclusive: 1.26 µM [inhibitor, full curve] | 
Cc1ccc(N2CC(NC(=O)c3cccs3)CC2=O)cc1 (stereo not given) |  | inactive: -13.6%
Cc1ccccc1CN1C(=O)c2ccccc2Sc2ccc(C(=O)NCCc3ccccc3)cc21 | inconclusive: 39.8 µM [inhibitor, single point] | 
O=C(COC(=O)c1sc2ccccc2c1Cl)NCC1CCCCC1 | inconclusive: 25.1 µM [inhibitor, single point] | 
Cc1ccc(N(CC(O)Cn2c3ccccc3c3ccccc32)S(C)(=O)=O)c(C)c1 (stereo not given) | inconclusive: 31.6 µM [activator, single point] | 
CCn1cc(C(=O)N2CCN(c3cccc(Cl)c3)CC2)c(=O)c2cc(S(=O)(=O)N3CCC(C)CC3)ccc21 | inconclusive: 5.01 µM [activator, full curve] | 
CCOC(=O)c1c(C)[nH]c(C)c1S(=O)(=O)N1CCC(C(=O)N2CCN(c3ccc(F)cc3)CC2)CC1 | inconclusive: 31.6 µM [activator, single point] | 
Cc1ccc2c(=O)cc(CSc3ncn[nH]3)[nH]c2c1C |  | inactive: -12.7%
O=C(CNC(=O)c1ccc([N+](=O)[O-])cc1)N/N=C\c1ccc(OC(=O)c2ccccc2)cc1 | active: 7.94 µM | 
COc1ccc(C(C(=O)NC2CCCCC2)N(C(=O)c2sc(C)nc2C)c2ccc(C(C)=O)cc2)cc1 (stereo not given) | inconclusive: 15.8 µM [activator, partial curve] | 

Structure (SMILES) | Potency | max response, negative = inhibition
CCOc1ccccc1NC(=O)c1c(NC(=O)CNCc2ccco2)sc2c1CCC2 | active: 10 µM | 
Cc1nc2cc(C(=O)OCC(=O)N(CC(C)C)C3CCS(=O)(=O)C3)ccc2n1-c1ccccc1 (stereo not given) | inconclusive: 31.6 µM [activator, single point] | 
CCCCC(C)(O)C/C=C/[C@H]1[C@H](O)CC(=O)[C@@H]1CCCCCCC(=O)O (stereo not given in full) |  | inactive: -5.49%
COc1ccc(C2(C(=O)Nc3ccc(S(=O)(=O)Nc4nc(C)cc(C)n4)cc3)CCCC2)cc1OC | inconclusive: 5.01 µM [activator, full curve, poor fit] | 
FC(F)(F)C(Oc1nc(NC2CCCCC2)nc(N2CCOCC2)n1)C(F)(F)F | inconclusive: 15.8 µM [activator, partial curve] | 
Cc1ccc(NC(=O)CN2C(=O)N/C(=C/c3ccc(C)s3)C2=O)cc1 | inconclusive: 10 µM [inhibitor, partial curve, poor fit] | 
CC(=O)C1=C(c2cccc([N+](=O)[O-])c2)N(C(C)=O)n2c(nnc2-c2ccc(C)cc2)S1 | inconclusive: 25.1 µM [inhibitor, single point] | 
O=C(NC(=S)Nc1cccc(NC(=O)c2ccccc2)c1)c1cccc([N+](=O)[O-])c1 | inconclusive: 31.6 µM [inhibitor, single point] | 
C[C@@]1(C(NC(=O)c2ccccc2)c2ccc(-c3ccccc3)cc2)C[C@H]1C1CCCCC1 (stereo not given in full) | active: 10 µM | 
COc1ccc(N2CCN(c3nc4ccccc4nc3NS(=O)(=O)c3ccccc3)CC2)cc1 | inconclusive: 39.8 µM [inhibitor, single point] | 
O=C(O)CCCC(=O)Nc1nc2n(n1)C(c1ccc(F)cc1)CC(c1ccc(Cl)cc1)N2 (stereo not given) | inconclusive: 39.8 µM [activator, single point] | 
O=C1c2[nH]nc(-c3ccccc3O)c2C(c2cccc(O)c2)N1Cc1ccco1 (stereo not given) |  | inactive: -6.51%
CCOC(=O)c1c(NC(=O)C2c3ccccc3Oc3ccccc32)sc2c1CCC(CC)C2 (stereo not given) |  | inactive: 14.2%
COc1ccc(-c2ccc(NS(=O)(=O)c3cc(C)c(C)cc3C)cc2)nn1 |  | inactive: -3.85%
O=C(Nc1nc2c(F)cccc2s1)c1ccc(S(=O)(=O)N2CCCc3ccccc32)cc1 |  | inactive: -1.3%
O=C(NCCc1ccc(Cl)cc1)C1CCN(S(=O)(=O)c2ccc(-n3cnnn3)cc2)CC1 | inconclusive: 31.6 µM [activator, single point] | 
COc1cc2c(cc1NC(=O)c1cccnc1)oc1ccccc12 | inconclusive: 39.8 µM [activator, single point] | 
N#Cc1c(C(F)(F)F)cc(-c2cccs2)nc1SCc1ccc(Cl)nc1 | inconclusive: 39.8 µM [inhibitor, single point] | 
CC/C(=N/Nc1cccc(Cl)c1)c1cnnc(SC)n1 | inconclusive: 25.1 µM [inhibitor, single point] | 
Cc1cc(C)c(-c2cc(NC(=O)COC(=O)c3ccc(C#N)cc3)n(-c3ccccc3)n2)cc1C | active: 15.8 µM | 
